Sequences with one replicate were seen in a single cluster, so their values are uncertain.
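Further: ATP exposure 15 min at 22 °C before imaging.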

The subject of the series is ATP. The experiment in a line: switch fluorescence ratio, 500 uM ATP over buffer (Cy3 cluster intensity, sum of 5 cycles each) (fold (ratio)); higher = stronger signal-on switching upon ATP binding; sequences stand for … in TCGTCGGCAGCGTCAGATGTGTATAAGAGACAGTTTTTTTTTTTTTTTTTTTTTTTTT…TC. Conditions: aptamer strand: ATP DNA aptamer (quencher-CACCTGGGGGAGTATTGCGGAGGAAGG + anchor), 100 nM annealed; ATP concentration: 500 uM; one replicate. Summed up: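 Values give the fluorescence ratio for each switch-domain sequence, averaged from per-cluster ratios of summed target-cycle to summed buffer-cycle Cy3 intensity. The Cy3-labelled switching-strand clusters sat on a modified Illumina MiSeq flow-cell, were annealed to 100 nM quencher-labelled ATP aptamer, and were imaged in selection buffer, then after 15 min with 500 uM ATP at 22 °C. Five cycles ran with NaOH stripping and re-annealing between them, and clusters outside 100-1000 RFU were excluded.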
CTCATATCTT: the switch fluorescence ratio is 0.99.
To GATTGACTCG belongs 1; to ATTTCCACG, 0.978.
In the case of TGTAGTTTAT, the switch fluorescence ratio came out at 1.02.
On to TGCTTGTAA, for which the switch fluorescence ratio was 0.997.
As to CGCATGCTGA, the switch fluorescence ratio turned out to be 1.01.
To GGGAAGTTGC belongs 0.971.
Then CTTCTTGGAA, with 1.01; and AGCTGGTCAC, with 0.992.
Then CATTACCGTC, with 1.06.
In the case of ATGTGATGAT, the switch fluorescence ratio came out at 0.965.
For the sequence TCGCTGAACA, the switch fluorescence ratio amounted to 1.03.
Then GATGGCTCAA, with 0.976; and CCCATTTTAG, with 1.02.
Then ACGTGACATG, with 1.11; and TCTTGCTTCT, with 1.01.
To CCGACAAGTG belongs 1.31.
Take TTTATGGCAA: the switch fluorescence ratio came out at 1.34.
Then TATGACACAG, with 0.968; and ATGTTTGTT, with 1.01; and CAACTTAGTA, with 1.
To GGACAATTGC belongs 1.04; to CGAGCTGCCT, 1.02; to AGGTGTGGAG, 1.02.
As for TTCGTGCTCT, the switch fluorescence ratio is 0.998.
To GGACTTTAGG belongs 0.955.
For the sequence AGATACTGGT, the switch fluorescence ratio was 1.03.
Then AGAGCGGACC, with 1.05.
ACCTAGTGCT: the switch fluorescence ratio came out at 1.03.
Then AGAGTTGGGC, with 1.06.
Consider ATTGGCGCCT, for which the switch fluorescence ratio was 1.05.
Regarding TCGGAGATGC, the switch fluorescence ratio was 1.14.
Then AAACATATAC, with 1.39; and GGTAACACCC, with 0.994.
To TCTAGATACA belongs 1.06.
Then ACATCTCGCA, with 1.08; and CCAGGTACTC, with 1.33.
On to AGATTAGGA, for which the switch fluorescence ratio was 1.
As for GTCTTTATTG, the switch fluorescence ratio stood at 0.988.
To TTGAAAAGCT belongs 1.08; to ATTGTTTGAA, 0.996.
With CGTGTATCAA, the switch fluorescence ratio turned out to be 1.04.
To TCGGGTCGCT belongs 1.01; to AAGGCTTAAG, 1.02.
Then GGAGTTGGCT, with 0.956.
As to TAGTGGCGAA, the switch fluorescence ratio stood at 0.994.
Then ATGCGCCGCG, with 1.02; and CAGGTCATAG, with 0.97.
To ACAAACCCTT belongs 1.15; to CTGAGTACAA, 1.09.
For GGAAAGATCG, the switch fluorescence ratio was determined as 0.979.
As for GTGTTCTGTG, the switch fluorescence ratio worked out at 0.953.
Then GGTCTATGTC, with 0.963; and TCTAATACGA, with 2.59; and CGACGGAGGA, with 1.31.
With CTTGTTTAGC, the switch fluorescence ratio came to 1.01.
To CTTGAGGCAG belongs 1.41; to ACGCTCTCCA, 1.31.
Then TACATTTGA, with 0.967.
To CACAGATGGT belongs 1; to GCGAAGCCCC, 1.01; to TAGGATGGAA, 0.969.
Take AGTTTTTTAC: the switch fluorescence ratio was 1.07.
To TGAATTCGAT belongs 0.999; to GTTGGTATAC, 1.04.
Then ATGTAAGGCT, with 0.962; and AAATTCTCAT, with 1.02.

Source of the values: the supplement of paper PMC10126150.
